# PubChem BioAssay (NCI)
# A structure can be active in one record and inactive in another.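 Treatment: one concentration, 48 hours, 96-well format. Scoring: percent growth, with anything below 10 considered active.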 Some entries of the source have several records that differ or are many. This list holds those alone. There may be further records. The screen tested this drug many times, at the concentration stated with the values; each value is one run. Marks such as (2×) stand for listed records that agree.
# Experiments:
# [1] = test system: NCI-H226 lung; assay: NCI-60 one-dose screen, 48 h (100 = growth as untreated, 0 = no growth, -100 = all killed); conditions: 25 µM
# [2] = test system: NCI-H322M lung; assay: as above; conditions: 0.25 µM
compound,measurement,setting,value
COc1cccc2c1C(=O)c1c(O)c3c(c(O)c1C2=O)C[C@@](O)(C(=O)CO)C[C@@H]3OC1CC(N)C(O)C(C)O1 (stereo not given in full),growth,[1]; runs of 1992,"active: -26.6 (2×), -68, -14.4, 1.75, -57, -64.8, -39.9, -43.6, -68.4, -67, -22.7, -0.455, 7.36, -66.1, -60.2 (2×), -54.6, -48, -31.8, -50.7, -69.5, -79.1, -72, -57.1, -75.1, -10.3, -35.6, -71.5, -62.6, -74.1, -72.1, -73.2, -76.5, -76.3, -82.8, -86.5, -47.8, -37.3, -40.1, -50.1, -27.9, -24.8, -74.8, -76 (2×), -82.7 (2×), -86.2, -37.2, -43, -42.9, -38.7, -36.2, -6.84, -36.1, -63.2, -59.8 (2×), -53.9, -51.4, -69.6, -22.4, -28.5, -51.9, -47.9, -49.7, -63.7, -75.3, -83.2, -78.9, -89.3, -91.3, -66.5 (2×), -60.3, -53, -78.3, -84, -81.7, -69.4, -71.3, -64.6, -50.8, -48.5, -67.4 (2×), -68.6, -54.7, -81.5, -73.8, -74.9, -57.8, -64.1, -62.1, -69.9, -40.5, -57.5, -64, -42.3, -69.3, -84.3, -33.9, -62.8% and inactive: 27.6%"
same,growth,[1]; runs of 1993,"active: -46.4, -51.8, -56.1 (2×), -21, -22, -49.4, -57, -37, -19.2, -19.7, -60.8, -72.8, -58.6, -48.2, -10.9, -8.56, -5.38, -30, -32.5, -60.5, -74.6, -45.4, -39.4, -8.36, -37.6, -38.9, -32.2, -37.5, -58.3, -50.7, -55, -40.7, -40.6, -46.3, -44.2, -66.1, -36.9, -26.2, -42.5, -43.3, -34.9, -51.1, -33.6% and inactive: 21.3%"
same,growth,[1]; runs of 1994,"active: -53.5, -36.7, -36.3, -36, -51.4, -44, -42.2, -53.3, 3.5, -57.6, -32.6, -18.2, -52.5, -28.7, -60.9, -60.6, -19.9, -30.6, -1.34, -34.3, -59.6, -64.3, -77.3, -29.9, -35.7, -50, -52.3, -55.1, -0.422, -54, -58.9% and inactive: 57.9%"
same,growth,[1]; runs of 1995,"active: -25.8, -34.3, -57.7 (2×), -35, -42.5, -46.1, -42.2, -25.6, -39.9, -37.6, -36.1, -30.9, -21.5, -36.2, -29.2, -31.4, -36.8, -36.5, -41.6, -63.7, -56.3, -71.2, -67.4, -72.4, -88.8, -48.3, -3.89, -50.8, -64.8, -16.3, 4.01, -2.37, -37.5, 0.651, 3.46, 1.27%"
same,growth,[1]; runs of 1996,"active: -19.7, -30.7 (2×), -23.3, -17.1, -5.65, -19.5, -29.1, -59.6, -58.1, -39.4, -54.6, -17.9, -34.2, -24.6, -40.9, -21.1, -32.4, -31.2, -17.5, -44.3, -56.7, -44.5, -55.7, -60.1, -49.3, -73.4, -47.5, -71.5, -63.7, -76.6, -72, -65.6, -49.5, -61, -19, -69.8, -25.6, -9.35, 9.38, -31.5, -1.43, -26.8, -27.2, -15.3, -8.39, -18.3, 2.41, -13.8, 3.6, -39.8, -22, 0.806% and inactive: 22.5, 87.7, 39.1, 14.3%"
same,growth,[1]; runs of 1997,"active: -9.42, -33.8, -42.8, -30.8, -30.1, -50.9, -54.7 (2×), 2.28, -15.3, -25, -60.5, -35.2, -47.7, -36.1, -47.6 (2×), -68.7, -62.7, -33.1, -54.3, -59.1, -25.4, -43.6, -61.9, -67.8, -63.5, -62.1, -74.6, -65.7, -58.6, -70.6, 6.85, -6.16, -56.7, 7.06, -15.2% and inactive: 11%"
same,growth,[1]; runs of 1998,"active: -0.781, -19.5, -19.8, -49.3, -37.7 (2×), -42.5, -34.4, -10.1, -54, -27.3, -18.8, -16.6, -42, -36.7, -13.1, -24.6, -22.9, -16.5%"
same,growth,[1]; runs of 1999,"active: -32.7, -43.2, -9.66, -19.5, -42.4, -78.8, -82.6, -94.3, -9.27, -75.6, -88.5, 0.863%"
same,growth,[1]; runs of 2000,"active: -100, -98.5, -27.5, -88.2%"
same,growth,[2]; runs of 2006,"inactive: 77.3%, 71%"
same,growth,[2]; runs of 2007,"inactive: 82.1, 74.8, 85.7, 75.5, 76.1, 81.9, 83.5, 77.8, 92.1, 86.9, 75.8, 85, 91.2 (2×), 74.2, 94.9, 146, 94.2, 57.7, 97.2, 90.2 (2×), 89 (2×), 96.8, 92.4, 87.2, 69.4, 92.9, 91.3, 93.9, 84.5, 88.3 (2×), 84.9, 89.9, 86.2, 79, 94.1%"
same,growth,[2]; runs of 2008,"inactive: 85.4, 84.1, 59, 98.7, 85.2, 91.3, 90.3 (2×), 79.7 (2×), 83.1, 77, 80.8, 89.3, 92.8, 67.9, 89.5, 68.9, 53.8, 70.6, 74.1, 83.9, 80.9, 75.3, 86.5, 96.6, 74.3 (2×), 108, 95.1, 82.5, 61.9, 79.8, 80.1 (2×), 64, 67.1, 65.9, 82.7, 91.2, 86.9, 100, 96.9, 80.3, 82.1, 98, 103, 76.4, 68.8, 79.2, 80.5, 86.1, 83.5%"
same,growth,[2]; runs of 2009,"inactive: 82.3 (2×), 73.9 (2×), 73.5, 78.1, 77.9, 76.7, 82.1, 87.4, 72.8, 89.1, 82.4, 86.8, 97.9, 80 (2×), 76.1, 88, 91.3, 81.9, 90.2, 84.8, 82.2, 77, 84.5, 87.9, 79.7, 78.2, 68.8, 88.9 (3×), 88.6, 92.4, 84.3, 97.3, 78.5, 79.5, 80.2, 77.3, 94.9, 95.9, 105, 80.3, 76.8, 86.7 (2×), 104, 81.4, 67.4 (2×), 98.8, 92.9, 75.5, 94.1, 95.5, 91.5, 89.2, 91.8, 79.9, 101, 97.7, 84.6%"
same,growth,[2]; runs of 2010,"inactive: 83.6, 88.5, 80.1, 86.5, 92, 80, 90.9, 90.8, 80.8, 76.8, 67.8, 75.1, 71.4, 68.5, 70.9, 106, 64.9, 72.3, 93.7, 84.3 (2×), 82.9 (2×), 89.9 (2×), 86.4, 91.2, 88.7, 76.6, 74.3, 72, 88.9, 91.3, 83.4 (2×), 94.4, 77.9, 80.7, 69.9, 88.2 (2×), 85.6, 98.3, 92.1, 110, 90.6, 94, 93.1, 85.2, 89.7, 97.7, 95.8%"
same,growth,[2]; runs of 2011,"inactive: 102 (5×), 93.6, 83.5, 87.3, 95.8, 104 (3×), 98.1, 84, 93.1 (2×), 99.6, 108, 96.1, 97.6, 97.9, 93, 99.2, 99.9, 88.9, 101 (3×), 98.6, 89, 103, 96.7, 100 (3×), 94.8, 82.1, 106, 83.3, 92, 90.9 (2×), 98.4, 88.8, 97.5, 87.2, 90.5, 89.1, 94.1, 95.6, 82.4, 93.2, 97.1, 91.9, 98.2, 97.7, 92.9, 94.5%"
